# Reference: PMC9911399, “Two distinct binding modes provide the RNA-binding protein RbFox with extraordinary sequence specificity”
# Changes are numbered by the printed parent chain; changes in the protein carry UniProt numbers. The list shows a part of the results.
# B1: GCGGCAG (DNA:RNA)
# RNA: GGGAGACCGGAAUUCAGAUUGUCCGCGGCAGUUAAAUCCCGUCGUAGCCACCA
# DNA 1: CAATCTGAATTCCGGTCTCCC
# DNA 2: TGGTGGCTACGACGGGATT
# B2: GGUAGGC (DNA:RNA)
# RNA: B1 RNA with C26G, G27U, G28A, C29G, A30G, G31C
# DNA 1: CAATCTGAATTCCGGTCTCCC
# DNA 2: TGGTGGCTACGACGGGATT
# B3: CGGGUAA (DNA:RNA)
# RNA: B1 RNA with G25C, C26G, C29U, G31A
# DNA 1: CAATCTGAATTCCGGTCTCCC
# DNA 2: TGGTGGCTACGACGGGATT
# B4: CCACUGA (DNA:RNA)
# RNA: B1 RNA with G25C, G27A, G28C, C29U, A30G, G31A
# DNA 1: CAATCTGAATTCCGGTCTCCC
# DNA 2: TGGTGGCTACGACGGGATT
# B5: CAGGGGG (DNA:RNA)
# RNA: B1 RNA with G25C, C26A, C29G, A30G
# DNA 1: CAATCTGAATTCCGGTCTCCC
# DNA 2: TGGTGGCTACGACGGGATT
# B6: GUAGAAC (DNA:RNA)
# RNA: B1 RNA with C26U, G27A, C29A, G31C
# DNA 1: CAATCTGAATTCCGGTCTCCC
# DNA 2: TGGTGGCTACGACGGGATT
# B7: CUGUCAU (DNA:RNA)
# RNA: B1 RNA with G25C, C26U, G28U, G31U
# DNA 1: CAATCTGAATTCCGGTCTCCC
# DNA 2: TGGTGGCTACGACGGGATT
# B8: AUCCUUG (DNA:RNA)
# RNA: B1 RNA with G25A, C26U, G27C, G28C, C29U, A30U
# DNA 1: CAATCTGAATTCCGGTCTCCC
# DNA 2: TGGTGGCTACGACGGGATT
# B9: AACAUUG (DNA:RNA)
# RNA: B1 RNA with G25A, C26A, G27C, G28A, C29U, A30U
# DNA 1: CAATCTGAATTCCGGTCTCCC
# DNA 2: TGGTGGCTACGACGGGATT
# B10: CAAACUA (DNA:RNA)
# RNA: B1 RNA with G25C, C26A, G27A, G28A, A30U, G31A
# DNA 1: CAATCTGAATTCCGGTCTCCC
# DNA 2: TGGTGGCTACGACGGGATT
# B11: AUCCUAU (DNA:RNA)
# RNA: B1 RNA with G25A, C26U, G27C, G28C, C29U, G31U
# DNA 1: CAATCTGAATTCCGGTCTCCC
# DNA 2: TGGTGGCTACGACGGGATT
# B12: GCAAUGC (DNA:RNA)
# RNA: B1 RNA with G27A, G28A, C29U, A30G, G31C
# DNA 1: CAATCTGAATTCCGGTCTCCC
# DNA 2: TGGTGGCTACGACGGGATT
# B13: UAACAUC (DNA:RNA)
# RNA: GGGAGACCGGAAUUCAGAUUGUCCUAACAUCUUAAAUCCCGUCGUAGCCACCA
# DNA 1: CAATCTGAATTCCGGTCTCCC
# DNA 2: TGGTGGCTACGACGGGATT
# B14: ACAGGCU (DNA:RNA)
# RNA: B1 RNA with G25A, G27A, C29G, A30C, G31U
# DNA 1: CAATCTGAATTCCGGTCTCCC
# DNA 2: TGGTGGCTACGACGGGATT
# B15: CGGACAC (DNA:RNA)
# RNA: B1 RNA with G25C, C26G, G28A, G31C
# DNA 1: CAATCTGAATTCCGGTCTCCC
# DNA 2: TGGTGGCTACGACGGGATT
# B16: GCUUUAU (DNA:RNA)
# RNA: B1 RNA with G27U, G28U, C29U, G31U
# DNA 1: CAATCTGAATTCCGGTCTCCC
# DNA 2: TGGTGGCTACGACGGGATT
# B17: GGUGUCA (DNA:RNA)
# RNA: B1 RNA with C26G, G27U, C29U, A30C, G31A
# DNA 1: CAATCTGAATTCCGGTCTCCC
# DNA 2: TGGTGGCTACGACGGGATT
# B18: GGACUUC (DNA:RNA)
# RNA: B13 RNA with U25G, A26G, A29U
# DNA 1: CAATCTGAATTCCGGTCTCCC
# DNA 2: TGGTGGCTACGACGGGATT
# B19: UAGACUA (DNA:RNA)
# RNA: B13 RNA with A27G, C28A, A29C, C31A
# DNA 1: CAATCTGAATTCCGGTCTCCC
# DNA 2: TGGTGGCTACGACGGGATT
# B20: CUCUACC (DNA:RNA)
# RNA: B13 RNA with U25C, A26U, A27C, C28U, U30C
# DNA 1: CAATCTGAATTCCGGTCTCCC
# DNA 2: TGGTGGCTACGACGGGATT
# Target: T1, RBFOX1 RRM RbFoxmut (Fox-RRM*) (Homo sapiens, UniProt Q9NWB1 109-208, R118D;E147R;N151S;E152T)
# T1 sequence: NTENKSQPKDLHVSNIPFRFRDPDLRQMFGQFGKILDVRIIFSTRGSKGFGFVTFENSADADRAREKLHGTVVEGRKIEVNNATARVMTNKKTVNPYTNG
# Assay: EMSA; HiTS-Eq, 1 nM pool, 10 min; buffer printed only for the single-RNA assays: 10 mM Tris pH 7.5, 150 mM NaCl, 3.4 mM EDTA, 0.001% NP-40, 30 C
# Conditions: tags: His6 N-terminal (pET28a); label: 5' 32P
# Procedure, shortened: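 Purified RbFox RRM (wild type or mutant) was equilibrated for 10 min in 50 µL with 1 nM of a 5′-radiolabelled pool of RNA with 7 randomized nucleotides, its flanks annealed to DNA oligonucleotides, across increasing protein concentrations. Free RNA was separated by 8% native PAGE, excised, reverse-transcribed, PCR-barcoded and sequenced on an Illumina HiSeq 2500. Relative association constants came from read-count changes of each variant against the control reaction, normalised to the cognate motif.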
row,Binder,binding signal
1,B1,0.104 KA relative to UGCAUGU
2,B2,0.0675 KA relative to UGCAUGU
3,B3,0.0961 KA relative to UGCAUGU
4,B4,0.123 KA relative to UGCAUGU
5,B5,0.0803 KA relative to UGCAUGU
6,B6,0.116 KA relative to UGCAUGU
7,B7,0.0805 KA relative to UGCAUGU
8,B8,0.109 KA relative to UGCAUGU
9,B9,0.0767 KA relative to UGCAUGU
10,B10,0.0907 KA relative to UGCAUGU
11,B11,0.135 KA relative to UGCAUGU
12,B12,0.0545 KA relative to UGCAUGU
13,B13,0.0561 KA relative to UGCAUGU
14,B14,0.118 KA relative to UGCAUGU
15,B15,0.0572 KA relative to UGCAUGU
16,B16,0.126 KA relative to UGCAUGU
17,B17,0.169 KA relative to UGCAUGU
18,B18,0.118 KA relative to UGCAUGU
19,B19,0.0687 KA relative to UGCAUGU
20,B20,0.0729 KA relative to UGCAUGU
